Assay results: PubChem BioAssay AID686978 (National Center for Advancing Translational Sciences (NCATS), 2013)
Among all 420,000 compounds or so, about 64,000 (15%) were called active. The shares of active, inactive and inconclusive entries below differ from those in the screen. Calls come from the whole dose curve; as a rule, active = well fitted inhibition curve with a large enough effect; inconclusive = small, poorly fitted or top-dose-only effect; inactive = flat fitted curve, though single readings scatter. Potencies of inconclusive entries are left out as doubtful fits.

test: qHTS for Inhibitors of human tyrosyl-DNA phosphodiesterase 1 (TDP1): qHTS in cells in absence of CPT; details: DT40 Tdp1-/- hTDP1 cells, no CPT, ATP luminescence, 48 h; series mostly up to 46.2 µM; note: nearly all actives have a fitted effect of over 55% in size
In short: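 A cellular qHTS used chicken DT40 cells lacking endogenous Tdp1 but carrying stably transfected human TDP1. Compounds were applied without camptothecin, and cell growth kinetics were judged by ATP-dependent luminescence after ≥48 hr.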
Potency is the fitted concentration of half-maximal effect; tags give direction and shape of the fitted curve.

SMILES | Potency
CN(c1ccccc1)S(=O)(=O)c1ccc(Cl)c(C(=O)NC2=NCCS2)c1 | inconclusive [inhibitor, single point]
O=C(CSc1ccsc1[N+](=O)[O-])N1CCN(c2ccc(Cl)cc2)CC1 | inconclusive [inhibitor, single point]
Cc1nn(C)cc1CN1CCOc2ccc(CN3CCC(Oc4cccnc4)CC3)cc2C1 | inconclusive [inhibitor, partial curve]
CCOc1ccc(CN2CCN(Cc3nc(C(C)C)cs3)CC2CCO)cc1 (configuration not stated) | inconclusive [inhibitor, single point]
Cc1onc(-c2ccccc2)c1C(=O)Nc1nnc(COc2ccc(Cl)cc2)s1 | active: 8.2 µM
CC1CCCC(C)N1CC(O)COc1ccc(Cl)cc1 (configuration not stated) | inconclusive [inhibitor, single point]
C[C@@H]1CCC(=O)N(CC[C@H](N=[N+]=[N-])c2ccccc2)CC1 | inconclusive [inhibitor, single point]
COc1ccc(S(=O)(=O)N(Cc2nc3ccccc3c(=O)[nH]2)C2CCCC2)cc1 | inconclusive [inhibitor, single point]
CCOc1ccccc1NC(=O)C1CCCN(S(=O)(=O)c2ccccc2)C1 (configuration not stated) | inconclusive [inhibitor, single point]
Cc1nn(C)c2c1c(C(F)(F)F)cc(=O)n2CC(=O)NCc1ccc(OC(C)C)cc1 | inconclusive [inhibitor, single point]
FC(F)(F)c1cc(Oc2ccccc2Cl)nc(-c2ccccn2)n1 | inconclusive [inhibitor, single point]
CCC(C)c1ccc(OCC(=O)Nc2cccc3ccc(C)nc23)cc1 (configuration not stated) | inactive
Cc1ccc2c(CN3CC(C)CC(C)C3)cc(=O)oc2c1C (configuration not stated) | inconclusive [inhibitor, single point]
Cc1cc(OCC(=O)NN2C(=O)c3ccccc3C2=O)ccc1Cl | inconclusive [inhibitor, single point]
CCCCCc1nc2sc3c(c2c(=O)n1N)CCC3 | inconclusive [inhibitor, partial curve]
O=C(NCCc1ccccc1)C1CCN(S(=O)(=O)c2ccc(Br)s2)CC1 | inconclusive [inhibitor, single point]
C[C@H](O)[C@@H](C(=O)N1CCN(C(=O)OC(C)(C)C)CC1)n1cc(CCCCNC(=O)OC(C)(C)C)nn1 | inconclusive [inhibitor, partial curve]
